Out of some 410,000 compounds screened, about 850 (0.21%) were called active. The inconclusive results got no clear call from the source; some entries with a clear call stand among them for comparison. Calls follow the shape of the dose curve; as a rule, active = well fitted inhibition curve with a large enough effect; inconclusive = small, poorly fitted or top-dose-only effect, or another doubt; inactive = no such curve, though single readings can be large or run the other way. Potencies of inconclusive entries are left out as doubtful fits.
The compounds below were run against Glutaminase kidney isoform, mitochondrial (Homo sapiens) (UniProt O94925) (assay: qHTS for Inhibitors of Glutaminase (GLS)). Conditions: GLS enzymatic activity, qHTS titration; series mostly up to 45.5 µM; activity change, negative = inhibition: at the top concentration.
Sequence of UniProt O94925 (O94925 whole entry, looked up, canonical isoform): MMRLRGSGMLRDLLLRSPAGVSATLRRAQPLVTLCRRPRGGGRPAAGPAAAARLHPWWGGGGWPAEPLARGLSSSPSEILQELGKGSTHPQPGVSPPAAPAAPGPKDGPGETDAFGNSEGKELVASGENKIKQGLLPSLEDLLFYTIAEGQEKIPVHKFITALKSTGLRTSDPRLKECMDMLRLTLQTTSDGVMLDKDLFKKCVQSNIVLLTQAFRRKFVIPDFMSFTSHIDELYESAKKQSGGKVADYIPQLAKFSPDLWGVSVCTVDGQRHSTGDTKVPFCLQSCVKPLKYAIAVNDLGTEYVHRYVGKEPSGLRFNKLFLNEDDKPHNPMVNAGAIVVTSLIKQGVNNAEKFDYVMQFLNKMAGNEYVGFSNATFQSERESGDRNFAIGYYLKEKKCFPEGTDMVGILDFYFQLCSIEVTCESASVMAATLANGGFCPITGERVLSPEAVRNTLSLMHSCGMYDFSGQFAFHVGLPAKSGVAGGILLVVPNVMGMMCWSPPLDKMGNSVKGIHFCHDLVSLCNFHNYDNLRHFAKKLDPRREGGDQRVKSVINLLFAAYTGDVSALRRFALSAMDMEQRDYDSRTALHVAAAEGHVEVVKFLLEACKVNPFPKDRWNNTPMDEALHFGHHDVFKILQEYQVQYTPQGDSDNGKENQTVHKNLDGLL
Outline: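 Human kidney-isoform GLS in 45 mM KH2PO4 pH 8.2, 0.02% Tween-20, with compound, started with 1mM L-Glutamine (added stock). Glutamate oxidase/HRP/Amplex red coupled fluorescence read at start and after 30 min at RT.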
% is scaled to controls: 0 for no effect and ±100 for the full control effect; potency is read from the fitted curve at half-maximal effect; tags tell the direction and shape of the fitted curve.

| SMILES | activity change, negative = inhibition | Potency |
| --- | --- | --- |
| Cc1ccc(-c2c(C(=O)O)c(C(=O)O)c3n2CCC3)cc1 | inactive: 25.3% | – |
| CCC(=O)Nc1ccc(NC(=O)c2ccccn2)cn1 | inactive: 4.02% | – |
| Cc1ccccc1NC(=O)CSc1nc(N)c(C#N)cc1C#N | – | inconclusive [inhibitor, single point] |
| CCOc1ccc(NC(=O)CCNS(=O)(=O)c2ccc3c(c2)CC(C)N3C(C)=O)cc1 (stereo not drawn) | – | inconclusive [inhibitor, single point] |
| Cc1ccc(CN2C(=O)CCC2(C)c2nnnn2-c2c(C)cccc2C)cc1 (stereo not drawn) | – | inconclusive [inhibitor, full curve, poor fit] |
| NNC(=O)CCc1nc2ccc(O)cc2[nH]1 | – | inconclusive [inhibitor, partial curve] |
| CCCNC(=O)c1nnsc1S(=O)(=O)c1ccc(Cl)cc1 | – | inconclusive [inhibitor, partial curve] |
| Clc1ccccc1CNCCCSc1nnnn1-c1ccccc1 | inactive: -5.89% | – |
| Cc1noc(C)c1S(=O)(=O)N(CC(=O)Nc1ccc(C(F)(F)F)cc1)c1ccc(C(C)C)cc1 | inactive: -12.3% | – |
| CN1CCN(C(c2ccc(Cl)cc2)c2cc(Cl)c3cccnc3c2O)CC1 (stereo not drawn) | – | inconclusive [inhibitor, partial curve] |
| COc1cc(OC)c(NC(=O)C(CC(C)C)N2Cc3ccccc3C2=O)cc1Cl (stereo not drawn) | inactive: -11.3% | – |
| CCOC(=O)NC(N(O)c1cccc(Cl)c1)C(Cl)(Cl)Cl (stereo not drawn) | inactive: -0.0872% | – |
| O=c1cc(N2CCCCC2)c(-c2ccccc2)nn1Cc1ccc(Cl)cc1 | inactive: 4.64% | – |
| CCc1nn(C(C)C(=O)N2CCN(c3ccc(OC)cc3)CC2)c(=O)c2cc3occc3n12 (stereo not drawn) | – | inconclusive [inhibitor, single point] |
| Cc1ccc(NC(=S)NNC(=S)Nc2ccc(C)cc2C)cc1 | – | inconclusive [inhibitor, single point] |
| Cc1c(C(=O)N/N=C/c2ccccn2)nnn1-c1nonc1N | inactive: -7.59% | – |
| Cc1cccc(-c2csc(N)c2C(=O)OC(C)C)c1 | – | inconclusive [inhibitor, single point] |
| C(=N\N1CCN(c2ccccn2)CC1)/c1cccc2ccccc12 | inactive: -9.84% | – |
| Cc1cc(NC(=O)CN2CCN(C)CC2)no1 | – | inconclusive [inhibitor, single point] |
| Cc1ccc(-c2n[nH]c(=S)n2/N=C/c2c(C)[nH]n(-c3ccccc3)c2=O)cc1 | – | inconclusive [inhibitor, partial curve] |
| CC(C)NC(=O)C1CCCN(S(=O)(=O)c2ccc3c(ccn3C)c2)C1 (stereo not drawn) | inactive: 1.05% | – |
| Cc1ccc(Nc2nc(-c3ccc(O)c(O)c3)cs2)nc1 | – | inconclusive [inhibitor, single point] |
| O=c1[nH]c(/C=C/c2cccnc2)c([N+](=O)[O-])c(=O)[nH]1 | inactive: 8.93% | – |
| COc1ccccc1CNC(=O)c1cnc2sccn2c1=O | – | inconclusive [inhibitor, single point] |
| CC12CCC(C/C1=N\N=C1\NC(=O)/C(=C\c3cccc(Br)c3)S1)C2(C)C (stereo not drawn) | inactive: -13% | – |

| SMILES | activity change, negative = inhibition | Potency |
| --- | --- | --- |
| C=CCc1ccc(OCCOCCOc2cccc3ccc(C)nc23)c(OC)c1 | inactive: -5.94% | – |
| Cc1cc(C)c(S(=O)(=O)c2cccc(Br)c2C)c(Cl)n1 | – | inconclusive [inhibitor, single point] |
| Cc1cccc(N(C)C(=O)Cn2cnc3nc4c(cc3c2=O)CCCC4)c1 | inactive: -4.89% | – |
| CCN(CC(=O)Nc1ccc(NC(C)=O)cc1)C(=O)CSc1ncnc2sc(C)c(C)c12 | inactive: 1.38% | – |
| Cc1ccc(Cn2c(N/N=C/c3ccncc3)nc3c2c(=O)n(C)c(=O)n3C)cc1 | – | inconclusive [inhibitor, single point] |
| OC(COc1ccc(Cl)cc1)CN1CCN(c2ccccn2)CC1 (stereo not drawn) | inactive: -9.2% | – |
| Nc1nc(SCC(=O)Nc2cccnc2Cl)n[nH]1 | – | inconclusive [inhibitor, single point] |
| CC(c1ccc(F)cc1)n1c(-c2ccc3ccccc3n2)n[nH]c1=S (stereo not drawn) | – | active: 12.6 µM |
| COc1ccc2cc(C(=O)NCc3ccccc3)c(=Nc3ccc(C(=O)O)cc3)oc2c1 | – | inconclusive [inhibitor, single point] |
| COc1ccc(CC(=S)NCCc2ccccc2)cc1 | inactive: -29.6% | – |
| COc1cccc([C@H]2Nc3ccc(S(=O)(=O)Nc4cc(C)ccc4C)cc3[C@H]3C=CC[C@H]32)c1 | – | inconclusive [inhibitor, partial curve, poor fit] |
| O=C(/C(=C/O)N=Nc1ccccc1Cl)c1ccccc1 | – | inconclusive [inhibitor, partial curve, poor fit] |
| COc1ccc(CNC(=O)CCN2C(=O)c3ccncc3C2=O)cc1OC | inactive: 27.3% | – |
| CCCc1c(C)[nH]c2nc3ccccc3n2c1=O | – | inconclusive [inhibitor, single point] |
| CCN(CC(=O)NCc1ccc(Cl)cc1)Cc1cc(=O)n2ccsc2n1 | – | inconclusive [inhibitor, single point] |
| CC(C)NS(=O)(=O)c1ccc(OCC(=O)N2CCN(c3ccccc3F)CC2)cc1 | inactive: 0.0378% | – |
| CCOC(=O)C(=O)NNc1ccccc1OC | – | inconclusive [inhibitor, partial curve] |
| COc1ccc(-c2coc3cc(O)ccc3c2=O)cc1OC | – | inconclusive [inhibitor, single point] |
| COCC(=O)n1nc(NCc2ccc(OC)cc2)nc1NCc1ccc(OC)cc1 | – | inconclusive [inhibitor, single point] |
| [O-]C(=C(C(=S)Nc1cccc2ccccc12)[n+]1cccc(CO)c1)c1ccc(Cl)s1 | inactive: -2.05% | – |
| CCC(C)NC(=O)Cn1c(=O)n(-c2ccc(OC)cc2)c(=O)c2ccc(C(=O)NCc3ccc(C)cc3)cc21 (stereo not drawn) | inactive: 5.41% | – |
| Cc1onc(-c2c(Cl)cccc2Cl)c1C(=O)NC1C(=O)N2C1SC(C)(C)C2C(=O)O (stereo not drawn) | – | active: 12.6 µM |
| CC(C)(C)c1ccc(OCCSc2nc(-c3cccs3)nc3cc(=O)[nH]n23)cc1 | – | inconclusive [inhibitor, single point] |
| NC(=S)N=Nc1c(O)cc(O)c2[nH]c(=O)ccc12 | – | inconclusive [inhibitor, partial curve] |
| CCOC(=O)COc1c(Br)cc(C2NC(=O)NC(C)=C2C(C)=O)cc1OC (stereo not drawn) | inactive: -6.39% | – |

| SMILES | activity change, negative = inhibition | Potency |
| --- | --- | --- |
| COCCN=c1scc(-c2cccs2)n1/N=C/c1ccc(O)c(O)c1O | – | inconclusive [inhibitor, partial curve] |
| CNS(=O)(=O)c1ccc2nc(NC(=O)c3ccc(N4C(=O)CCC4=O)cc3)sc2c1 | – | inconclusive [inhibitor, single point] |
| Cn1c(N2CCC(C(N)=O)CC2)nc2c1c(=O)n(Cc1ccc(Br)cc1)c(=O)n2C | – | active: 12.6 µM |
| CC(C)COC(=O)Nc1nnc(SCc2ccccc2F)s1 | inactive: 2.83% | – |
| N#C/C(=C\c1ccc(Cl)cc1)C(=O)NC1CC1 | – | inconclusive [inhibitor, partial curve] |
| N#Cc1c(-c2cccc(Br)c2)cc(-c2ccco2)[nH]c1=O | – | inconclusive [inhibitor, partial curve, poor fit] |
| O=S(=O)(NCC(c1ccco1)N1CCc2ccccc21)c1ccccc1 (stereo not drawn) | – | inconclusive [inhibitor, partial curve, poor fit] |
| O=C(COC(=O)c1ccc(S(=O)(=O)N2CCCC2)cc1)NCc1ccco1 | inactive: 67.2% | – |
| CSc1ccc(NC(=O)Nc2ccc(C(=O)NCC(=O)O)cc2)cc1 | – | inconclusive [inhibitor, single point] |
| CCCNC(=O)CSc1nc(COc2ccccc2)nc2ccccc12 | – | inconclusive [inhibitor, single point] |
| COc1ccc(NC(=O)CCc2c(C)nc3c(-c4ccccc4)c(C)nn3c2C)cc1Cl | inactive: 1.81% | – |
| CCOc1ccc(N=C2NN=C(c3cc(C)n(CC4CCCO4)c3C)CS2)cc1 (stereo not drawn) | – | inconclusive [inhibitor, single point] |
| O=C(N/N=C/c1cn(-c2ccccc2)nc1-c1cccs1)c1ccc(Cl)cc1 | inactive: 5.83% | – |
| CC(Sc1ccc(Cl)cc1)C(=O)Nc1ccc(S(=O)(=O)N2CCOCC2)cc1 (stereo not drawn) | – | inconclusive [inhibitor, single point] |
| CCOc1ccc(NC(=S)NNC(=O)c2ccc(Br)cc2)cc1 | – | inconclusive [inhibitor, single point] |
| COc1ccc(/C=N/Nc2nnc(C)n2N)cc1OC | – | inconclusive [inhibitor, partial curve, poor fit] |
| Cc1cc(C)cc(NC(=O)CN(C)S(=O)(=O)c2ccc3c(c2)CCC(=O)N3)c1 | inactive: -13.2% | – |
| Cc1ccc(N2C3=C(C(=O)CC(C)(C)C3)C(c3cn(C)nc3C)C3=C2CC(C)(C)CC3=O)cc1 | – | inconclusive [inhibitor, single point] |
| CC(=O)Nc1ccc(C2=NN(C)C(=NCc3ccccc3)SC2)cc1 | – | inconclusive [inhibitor, partial curve] |
| O=C(CN1C(=O)NC2(CCCC2)C1=O)N1CCN(c2ccccc2O)CC1 | – | active: 3.16 µM |
| CC(C(=O)N1CCCCC1)N(C)CC(=O)Nc1ccc(Cl)cc1 (stereo not drawn) | – | inconclusive [inhibitor, partial curve, poor fit] |
| COc1cccc(-n2cc(C(=O)Nc3ccccc3C(N)=O)c3ccccc3c2=O)c1 | inactive: -1.16% | – |
| O=C(NCCn1cccn1)C1CCC(=O)N(CCc2ccc(Cl)cc2)C1 (stereo not drawn) | inactive: -1.77% | – |
